Measured values taken from the supplement of paper PMC8512760.
This is one part of the list. Repeats are few or missing, and single values can be far off.

Assays:
Experiment in all cases: cell viability relative to vehicle (% of vehicle); basal-like triple-negative breast cancer lines; higher = less cytotoxic
Conditions in all cases: 10 µM; 72 h
HCC-1143 = test system: HCC-1143
HCC-1187 = test system: HCC-1187
MDA-468 = test system: MDA-468
SUM-149 = test system: SUM-149
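Also: stably firefly luciferase-GFP labeled cells in 96-well plates, viability read as luciferase photon flux after d-luciferin addition, treated wells normalized to vehicle wells, single-dose high-throughput screen.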

## Cc1cc(C(C#N)c2ccc(Cl)cc2)c(Cl)cc1NC(=O)c1cc(I)cc(I)c1O (stereo not drawn) [Closantel]
HCC-1143
  cell viability: 66.3
HCC-1187
  cell viability: 91.8
MDA-468
  cell viability: 89
SUM-149
  cell viability: 98

## CCC1(C)CC(=O)NC(=O)C1 [Bemegride]
HCC-1143
  cell viability: 102
HCC-1187
  cell viability: 92.2
MDA-468
  cell viability: 98.7
SUM-149
  cell viability: 106

## CC12CC(=CO)C(=O)CC1CCC1C2CCC2(C)C1CCC2(C)O (stereo not drawn) [Oxymetholone]
HCC-1143
  cell viability: 99.7
HCC-1187
  cell viability: 117
MDA-468
  cell viability: 128
SUM-149
  cell viability: 81.8

## CC(=Cc1csc(C)n1)C1CC2OC2(C)CCCC(C)C(O)C(C)C(=O)C(C)(C)C(O)CC(=O)O1 (stereo not drawn) [Epothilone B (EPO906, Patupilone)]
HCC-1143
  cell viability: 96.6
HCC-1187
  cell viability: 33.9
MDA-468
  cell viability: 87.1

## Cl.NCCc1c[nH]c2ccc(O)cc12 [Serotonin HCl]
HCC-1143
  cell viability: 92.1
HCC-1187
  cell viability: 111
MDA-468
  cell viability: 121
SUM-149
  cell viability: 101

## CNCC(=O)c1ccc(O)c(O)c1.Cl [Adrenalone HCl]
HCC-1143
  cell viability: 100
HCC-1187
  cell viability: 112
MDA-468
  cell viability: 166
SUM-149
  cell viability: 99.7

## CCOC(=O)c1cncn1C(C)c1ccccc1.Cl (stereo not drawn) [Etomidate hydrochloride]
HCC-1143
  cell viability: 101
HCC-1187
  cell viability: 87.6
MDA-468
  cell viability: 136
SUM-149
  cell viability: 104

## CC1CNCCc2ccc(Cl)cc21.Cl (stereo not drawn) [Lorcaserin HCl]
HCC-1143
  cell viability: 73.9
HCC-1187
  cell viability: 92.8
MDA-468
  cell viability: 121
SUM-149
  cell viability: 99.7

## Cc1cc(C(C#N)c2ccc(Cl)cc2)c(Cl)cc1NC(=O)c1cc(I)cc(I)c1[O-].[Na+] (stereo not drawn) [Closantel Sodium]
HCC-1143
  cell viability: 67.6
HCC-1187
  cell viability: 100
MDA-468
  cell viability: 102
SUM-149
  cell viability: 99.5

## COc1cc2c(c(OC)c1OC)-c1ccc(OC)c(=O)cc1C(NC(C)=O)CC2 (stereo not drawn) [Colchicine]
HCC-1143
  cell viability: 58.8
HCC-1187
  cell viability: 42.9
MDA-468
  cell viability: 64
SUM-149
  cell viability: 112

## C#CC1(O)C=CC2C3CCC4=CC(=O)CCC4C3CCC21CC (stereo not drawn) [Gestodene]
HCC-1143
  cell viability: 74.8
HCC-1187
  cell viability: 123
MDA-468
  cell viability: 104
SUM-149
  cell viability: 103

## CCCC[N+]1(C)[C@@H]2C[C@@H](OC(=O)[C@H](CO)c3ccccc3)C[C@H]1[C@@H]1O[C@@H]12 (stereo partly drawn) [Scopolamine butylbromide]
HCC-1143
  cell viability: 99.9
HCC-1187
  cell viability: 118
MDA-468
  cell viability: 89.5
SUM-149
  cell viability: 117

## CCCCCCCCCCCC[N+](C)(C)CCOc1ccccc1.[Br-] [Domiphen Bromide]
HCC-1143
  cell viability: 19.3
HCC-1187
  cell viability: 25.7
MDA-468
  cell viability: 31.4
SUM-149
  cell viability: 29.6

## CN(C)C(=O)Oc1ccc[n+](C)c1.[Br-] [Pyridostigmine Bromide]
HCC-1143
  cell viability: 78.3
HCC-1187
  cell viability: 84.9
MDA-468
  cell viability: 91.9
SUM-149
  cell viability: 101

## CN1C(=O)CCS(=O)(=O)C1c1ccc(Cl)cc1 (stereo not drawn) [Chlormezanone]
HCC-1143
  cell viability: 75.3
HCC-1187
  cell viability: 76
MDA-468
  cell viability: 112
SUM-149
  cell viability: 129

## Cc1cccc(C)c1NC1=NCCCS1.Cl [Xylazine HCl]
HCC-1143
  cell viability: 113
HCC-1187
  cell viability: 121
MDA-468
  cell viability: 127
SUM-149
  cell viability: 118

## CN1c2ccccc2C(NCCCCCCC(=O)[O-])c2ccc(Cl)cc2S1(=O)=O.[Na+] (stereo not drawn) [Tianeptine sodium]
HCC-1143
  cell viability: 86.5
HCC-1187
  cell viability: 74.7
MDA-468
  cell viability: 82.1
SUM-149
  cell viability: 135

## C[N+](C)(C)CCCCCCCCCC[N+](C)(C)C.[Br-].[Br-] [Decamethonium Bromide]
HCC-1143
  cell viability: 76.7
HCC-1187
  cell viability: 88.4
MDA-468
  cell viability: 95
SUM-149
  cell viability: 102

## COc1cc2c(cc1OC)C13CCN4CC5=CCOC6CC(=O)N2C1C6C5CC43 (stereo not drawn) [Brucine]
HCC-1143
  cell viability: 83.6
HCC-1187
  cell viability: 102
MDA-468
  cell viability: 148
SUM-149
  cell viability: 141

## CN(C)C1C(=O)C(C(N)=O)=C(O)C2(O)C(=O)C3=C(O)c4c(O)cccc4C(C)(O)C3CC12.Cl (stereo not drawn) [Tetracycline Hydrochloride]
HCC-1143
  cell viability: 95.9
HCC-1187
  cell viability: 93.2
MDA-468
  cell viability: 80.2
SUM-149
  cell viability: 79.6

## CC(C)NCC(O)c1ccccc1Cl.Cl (stereo not drawn) [Clorprenaline HCL]
HCC-1143
  cell viability: 71
HCC-1187
  cell viability: 99.7
MDA-468
  cell viability: 143
SUM-149
  cell viability: 94.6

## CN1[C@@H]2C[C@@H](O)C[C@H]1[C@@H]1O[C@@H]12 [Scopine]
HCC-1143
  cell viability: 111
HCC-1187
  cell viability: 123
MDA-468
  cell viability: 124
SUM-149
  cell viability: 140

## CCCC1CC(=O)N(C(CC)C(N)=O)C1 (stereo not drawn) [Brivaracetam]
HCC-1143
  cell viability: 85.6
HCC-1187
  cell viability: 92.6
MDA-468
  cell viability: 106
SUM-149
  cell viability: 101

## O=c1cccc2n1C[C@@H]1CNC[C@H]2C1 [Cytisine]
HCC-1143
  cell viability: 75.9
HCC-1187
  cell viability: 77.9
MDA-468
  cell viability: 107
SUM-149
  cell viability: 102

## COc1ccc(C(CN(C)C)C2(O)CCCCC2)cc1.Cl (stereo not drawn) [Venlafaxine]
HCC-1143
  cell viability: 83.2
HCC-1187
  cell viability: 131
MDA-468
  cell viability: 96.8
SUM-149
  cell viability: 123

## CCNCC.O=S(=O)(O)c1cc(O)ccc1O [Ethamsylate]
HCC-1143
  cell viability: 69.8
HCC-1187
  cell viability: 91.5
MDA-468
  cell viability: 107
SUM-149
  cell viability: 102
